{"source": "paper PMC4336329", "about": "(PLoS ONE, 2015)", "note": "Screen size: about 310,000 compounds; about 14,000 (4.5%) showed an effect of 50% or more. The effect is printed as a negative number. The list shows a part of the results.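 Note: peak tail current of the secondary pulse compared with the same well before compound.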", "data": [{"molecular_target": "human ether-à-go-go-related gene (hERG) potassium channel (human, UniProt Q12809)", "sequence (Q12809 whole entry, looked up)": "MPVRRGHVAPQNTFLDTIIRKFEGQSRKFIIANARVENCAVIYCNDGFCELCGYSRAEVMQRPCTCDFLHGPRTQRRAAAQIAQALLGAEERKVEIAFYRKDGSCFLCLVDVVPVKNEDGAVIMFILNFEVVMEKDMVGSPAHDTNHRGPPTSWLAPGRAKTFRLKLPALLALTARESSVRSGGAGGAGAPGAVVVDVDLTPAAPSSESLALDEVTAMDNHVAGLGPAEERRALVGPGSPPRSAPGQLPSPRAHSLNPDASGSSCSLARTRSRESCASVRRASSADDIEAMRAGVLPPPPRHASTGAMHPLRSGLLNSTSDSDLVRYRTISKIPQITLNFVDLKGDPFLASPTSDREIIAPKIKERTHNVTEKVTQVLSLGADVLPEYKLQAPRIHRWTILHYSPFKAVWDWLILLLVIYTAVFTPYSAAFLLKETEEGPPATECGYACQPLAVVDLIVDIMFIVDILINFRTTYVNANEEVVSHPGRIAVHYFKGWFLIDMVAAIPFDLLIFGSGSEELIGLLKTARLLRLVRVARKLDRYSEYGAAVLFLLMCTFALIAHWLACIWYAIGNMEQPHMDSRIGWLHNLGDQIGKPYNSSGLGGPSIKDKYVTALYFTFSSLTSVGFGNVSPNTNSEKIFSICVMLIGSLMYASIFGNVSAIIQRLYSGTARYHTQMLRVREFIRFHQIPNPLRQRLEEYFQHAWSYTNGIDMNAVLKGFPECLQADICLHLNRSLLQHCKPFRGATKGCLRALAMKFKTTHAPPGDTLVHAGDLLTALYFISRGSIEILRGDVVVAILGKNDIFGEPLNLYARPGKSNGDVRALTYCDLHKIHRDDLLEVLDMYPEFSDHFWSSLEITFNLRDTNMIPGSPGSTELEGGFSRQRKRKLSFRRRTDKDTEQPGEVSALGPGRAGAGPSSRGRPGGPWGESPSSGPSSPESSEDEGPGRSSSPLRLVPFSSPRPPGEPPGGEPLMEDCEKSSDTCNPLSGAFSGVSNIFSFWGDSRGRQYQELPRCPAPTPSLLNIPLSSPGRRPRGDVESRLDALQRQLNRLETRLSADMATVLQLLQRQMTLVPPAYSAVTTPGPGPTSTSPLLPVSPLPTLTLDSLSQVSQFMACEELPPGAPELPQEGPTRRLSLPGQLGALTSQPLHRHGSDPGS", "experiment": "primary screen, population patch clamp on CHO cells stably expressing hERG", "units": {"hERG current change (%, negative = inhibition) at 10uM": "%"}, "values": [{"smiles": "O=C1CCCC2=C1C(c1ccc(O)cc1)c1c(ccc3ccccc13)N2", "note": "(stereo not shown)", "hERG current change (%, negative = inhibition) at 10uM": -23.9}, {"smiles": "C[N+]12CCC(CC1)C(C(O)(c1cccc(Cl)c1)c1cccc(Cl)c1)C2.[I-]", "note": "(stereo not shown)", "hERG current change (%, negative = inhibition) at 10uM": 13.6}, {"smiles": "COc1ccc(S(=O)(=O)N(CCCN2CCOCC2)Cc2ccc(OC)c(OC)c2)cc1", "hERG current change (%, negative = inhibition) at 10uM": -39.9}, {"smiles": "O=S(=O)(Nc1ccccc1Cl)c1ccc(-c2ccccn2)s1", "hERG current change (%, negative = inhibition) at 10uM": 10.1}, {"smiles": "CC(C)(C)Nc1nc(NCc2cccnc2)nc(N2CCOCC2)n1", "hERG current change (%, negative = inhibition) at 10uM": 4.02}, {"smiles": "C=CCn1c(SCCCCCC)nc(O)cc1=O", "hERG current change (%, negative = inhibition) at 10uM": -4}, {"smiles": "COc1cc(/C=N/N=C(\\N)c2nonc2N)ccc1O", "hERG current change (%, negative = inhibition) at 10uM": 5.38}, {"smiles": "Cc1ccccc1CN1CCN(CC(=O)NCc2ccccc2)C1=O", "hERG current change (%, negative = inhibition) at 10uM": 8.69}, {"smiles": "Cc1ccc(/C=C/C2=Cc3c(sc(NC(=O)CSc4n[nH]c(N)n4)c3C#N)C(C)(C)C2)o1", "hERG current change (%, negative = inhibition) at 10uM": 23.6}, {"smiles": "COc1ccc(-c2cc(=O)oc3cc(OCC(=O)N(C)C)ccc23)cc1", "hERG current change (%, negative = inhibition) at 10uM": -26.1}, {"smiles": "C/C(CC(=O)Nc1ccc(C)c(Cl)c1)=N\\NC(=O)c1ccccn1", "hERG current change (%, negative = inhibition) at 10uM": 17.3}, {"smiles": "Cc1ccc(NC(=S)N2C3CCCC2CC(NC(=O)C2CC2)C3)cc1C", "note": "(stereo not shown)", "hERG current change (%, negative = inhibition) at 10uM": -8.35}, {"smiles": "CC1CN(CC(O)COc2ccc(C(C)C)cc2)CC(C)O1.Cl", "note": "(stereo not shown)", "hERG current change (%, negative = inhibition) at 10uM": -14.3}, {"smiles": "COc1cc(/C=N/Nc2nc3ccccc3s2)cc([N+](=O)[O-])c1O", "hERG current change (%, negative = inhibition) at 10uM": -6.74}, {"smiles": "S=c1[nH]nc(-c2cccnc2)n1C1CCCCC1", "hERG current change (%, negative = inhibition) at 10uM": 16.5}, {"smiles": "COC(=O)CCCC1=CC2=CC(=O)C(C)(OC(=O)c3cccs3)C(=O)C2=CN1CCc1ccccn1", "note": "(stereo not shown)", "hERG current change (%, negative = inhibition) at 10uM": 5.1}, {"smiles": "CCCCn1c(N)c(N(CC(C)C)C(=O)C2=COCCO2)c(=O)[nH]c1=O", "hERG current change (%, negative = inhibition) at 10uM": 5.08}, {"smiles": "Cc1ccc(C)n1-c1ccncc1", "hERG current change (%, negative = inhibition) at 10uM": -2.02}, {"smiles": "O=C(NCCN1CCCC1)c1ccc2c(=O)n(CCc3ccccc3)c(=O)[nH]c2c1", "hERG current change (%, negative = inhibition) at 10uM": 1.23}, {"smiles": "COc1ccc(C2CC(c3ccccc3OC(C)=O)=NN2C(C)=O)cc1", "note": "(stereo not shown)", "hERG current change (%, negative = inhibition) at 10uM": -6.31}, {"smiles": "Cn1cc(C(=O)OCC(=O)N2CCCCC2)c2ccccc21", "hERG current change (%, negative = inhibition) at 10uM": 10.2}, {"smiles": "CC1N=C(c2ccccc2Cl)c2cc(Br)ccc2NC1=O", "note": "(stereo not shown)", "hERG current change (%, negative = inhibition) at 10uM": -25.1}, {"smiles": "CC(=O)N1CCN(c2ccc(NC(=O)c3ccc(Cl)c(Cl)c3)cc2)CC1", "hERG current change (%, negative = inhibition) at 10uM": -13.3}, {"smiles": "COc1ccc(Nc2nc(C)cc(C)c2C(N)=O)cc1OC", "hERG current change (%, negative = inhibition) at 10uM": 9.1}, {"smiles": "CCc1nnc(NC(=O)CCC(=O)N2CCN(c3ccccn3)CC2)s1", "hERG current change (%, negative = inhibition) at 10uM": 2.11}, {"smiles": "COc1ccc(-n2cnnc2SCCC#N)cc1", "hERG current change (%, negative = inhibition) at 10uM": 6.38}, {"smiles": "COc1cc(/C=C/C(=O)OCC(=O)c2ccc3c(c2)NC(=O)CO3)ccc1OC(F)F", "hERG current change (%, negative = inhibition) at 10uM": 17.1}, {"smiles": "Cc1ncoc1C(=O)N1CCCC(N2CCN(c3cccc(C(F)(F)F)c3)CC2)C1", "note": "(stereo not shown)", "hERG current change (%, negative = inhibition) at 10uM": -35.7}, {"smiles": "O=C(NC1=C(Nc2ccc(F)cc2)C(=O)c2ccccc2C1=O)c1ccc(Cl)cc1", "hERG current change (%, negative = inhibition) at 10uM": -2.98}, {"smiles": "CC(Cc1cccs1)NC(=O)Nc1ccccc1", "note": "(stereo not shown)", "hERG current change (%, negative = inhibition) at 10uM": 0.115}, {"smiles": "CCOC(=O)C1=C(C)N=C2c3ccccc3C(=O)C2C1c1ccccc1", "note": "(stereo not shown)", "hERG current change (%, negative = inhibition) at 10uM": 3.65}, {"smiles": "CC(=O)N1CCN(c2ccc(Oc3nnnn3-c3ccccc3)cc2)CC1", "hERG current change (%, negative = inhibition) at 10uM": -46}, {"smiles": "O=C(O)c1ccccc1SCC(=O)N1CCCCC1", "hERG current change (%, negative = inhibition) at 10uM": 15.2}, {"smiles": "COc1cccc(NC(=O)N2CCN(C(=O)C(Cc3ccc(OC)c(OC)c3)NC(C)=O)CC2)c1", "note": "(stereo not shown)", "hERG current change (%, negative = inhibition) at 10uM": -1.13}, {"smiles": "O=C(Nc1ccccn1)c1cccc(S(=O)(=O)N2CCCC2)c1", "hERG current change (%, negative = inhibition) at 10uM": 9.44}, {"smiles": "O=C(Nc1cccnc1)c1ccc2c(c1)OCO2", "hERG current change (%, negative = inhibition) at 10uM": 6.94}, {"smiles": "COc1ccc(C2C(C#N)=C(N)OC3=C2C(=O)CC(C)(C)C3)cc1", "note": "(stereo not shown)", "hERG current change (%, negative = inhibition) at 10uM": 12.8}, {"smiles": "COc1cc(CC(=O)NCc2ccc3c(c2)OCO3)cc(OC)c1OC", "hERG current change (%, negative = inhibition) at 10uM": 11.2}, {"smiles": "CCN1CCN(C(=O)C2CCC(=O)N(CCCN3CCCC3=O)C2)CC1", "note": "(stereo not shown)", "hERG current change (%, negative = inhibition) at 10uM": 19.7}, {"smiles": "CCOc1ccc(NC(=O)CN(c2ccc(OC)c(OC)c2)S(=O)(=O)c2ccc(C)cc2)cc1", "hERG current change (%, negative = inhibition) at 10uM": 16.2}, {"smiles": "c1ccc2c(CCNc3ncnc4nc[nH]c34)cccc2c1", "hERG current change (%, negative = inhibition) at 10uM": -6.53}, {"smiles": "Cc1ccc2[nH]c(O)c(N=O)c2c1", "hERG current change (%, negative = inhibition) at 10uM": -0.934}, {"smiles": "CC(C)Nc1nc(NC(C)C)nc(OCCOC(=O)c2ccccc2)n1", "hERG current change (%, negative = inhibition) at 10uM": -33.1}, {"smiles": "CCc1ccc2c(c1)/C(=C/C(=O)c1cccs1)C(=O)N2", "hERG current change (%, negative = inhibition) at 10uM": 2.57}, {"smiles": "Cc1cc(C(=O)N2CCCC(N3CCN(c4cccc(C(F)(F)F)c4)CC3)C2)c(C)o1", "note": "(stereo not shown)", "hERG current change (%, negative = inhibition) at 10uM": -23.2}, {"smiles": "O=C(O)CSc1cccc2cccc(C(=O)O)c12", "hERG current change (%, negative = inhibition) at 10uM": 9.64}, {"smiles": "CCOC(=O)C1CCN(C(=O)c2cc(OCC)c(OCC)c(OCC)c2)CC1", "hERG current change (%, negative = inhibition) at 10uM": -3.3}, {"smiles": "COc1cc(NC(=S)NN2CCN(C)CC2)cc(OC)c1", "hERG current change (%, negative = inhibition) at 10uM": 19.9}, {"smiles": "CC1CCCN(C(=O)c2ccc(NS(=O)(=O)c3ccc4[nH]c(=O)[nH]c4c3)cc2)C1", "note": "(stereo not shown)", "hERG current change (%, negative = inhibition) at 10uM": 5.66}, {"smiles": "CN(C(=O)Cn1nc(C(=O)O)c2ccccc2c1=O)c1ccccc1", "hERG current change (%, negative = inhibition) at 10uM": -10}, {"smiles": "O=C(CSc1ncn[nH]1)Nc1ccc(Cl)c(S(=O)(=O)N2CCOCC2)c1", "hERG current change (%, negative = inhibition) at 10uM": 12.6}, {"smiles": "O=C(Nc1ccccc1F)C1CCN(C(=O)NCc2ccccc2)CC1", "hERG current change (%, negative = inhibition) at 10uM": 9.76}, {"smiles": "CCOc1ccc2ccccc2c1C(=O)Nc1cc(=O)n(C)c(=O)n1C", "hERG current change (%, negative = inhibition) at 10uM": -8.43}, {"smiles": "CCCC(=O)Nc1sc2c(c1C(=O)OC)C(C(=O)OC)CC2", "note": "(stereo not shown)", "hERG current change (%, negative = inhibition) at 10uM": -0.813}, {"smiles": "Clc1cccc(-c2ccnc3nc(-n4cccc4)nn23)c1", "hERG current change (%, negative = inhibition) at 10uM": 29.4}, {"smiles": "COc1ccc(NC(=O)CN2CCC(C(N)=O)(N3CCCCC3)CC2)c(OC)c1", "hERG current change (%, negative = inhibition) at 10uM": 1.56}, {"smiles": "COc1cc(CN2CCCC(C)C2)ccc1OCc1ccccc1", "note": "(stereo not shown)", "hERG current change (%, negative = inhibition) at 10uM": -49.8}, {"smiles": "O=C(Nc1nc2c(F)c(F)c(F)cc2s1)c1ccco1", "hERG current change (%, negative = inhibition) at 10uM": 20.9}]}]}
